Our source for the GI50 and TGI values is PubChem BioAssay (NCI).

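How tested: cells in 96-well plates exposed to compound for 48 hours at five concentrations. Here, GI50 denotes the concentration required for 50% inhibition of growth. TGI is the concentration that stops growth completely.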

For the experiment, the system named is NCI-H322M lung. Put plainly: NCI tumour cell line growth inhibition, 48 h.
With `Cc1cn(-c2cc(NC(=O)c3cncc(C#Cc4cnc5ccc(OCCCS(C)(=O)=O)nn45)c3)cc(C(F)(F)F)c2)cn1`, the GI50 is 1.96 µM and the TGI was > 100 µM.
For `NC(N)=Nc1ccc(Oc2cccc(Nc3ccc(Cl)cc3)c2)cn1`, in that order: 1.66 µM and 3.03 µM.
The corresponding values for `CC1OC(O[C@@H]2C(O)C(CO)OC(O[C@H]3COC(O[C@H]4CC[C@]5(C)[C@H]6CC[C@]78OC[C@@]9(CC[C@](C)(C=O)C[C@H]97)[C@H](O)C[C@@]8(C)[C@]6(C)CC[C@H]5C4(C)C)[C@@H](OC4OC(CO)[C@@H](O)[C@@H](O)[C@@H]4O)[C@@H]3O)[C@H]2OC2OC[C@@H](O)[C@@H](O)[C@@H]2O)[C@@H](O)[C@@H](O)[C@H]1O` (stereo not given in full) are 1.9 µM and 3.6 µM.
For `COc1cc2c3c(n(CCCNC4CCCC4)c(=O)c2cc1OC)-c1cc2c(cc1C3=O)OCO2`, the GI50 was 9.45 µM and the TGI came to 24.4 µM.
Consider `Cn1cc(-c2cc3ncnc(Nc4ccc(NC(=O)Nc5cc(C(C)(C)C)on5)cc4)c3s2)cn1`, for which the GI50 is 1.94 µM and the TGI turned out to be 31.9 µM.
